# Test results taken from the supplement of paper PMC11417369.
# The list shows a part of the results.
# Tested on: PF3D7_0420300 AP2 domain 1 (GST-tagged)
# Test: gcPBM binding intensity (ln(normalized median fluorescence intensity)); higher = stronger DNA binding
# Outline: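 Plasmodium falciparum DNA-binding domains carrying a GST tag were expressed in E. coli and applied for 1 h, at about 25 μg on average, to an Agilent 4 × 180k array. The array held primer-extended double-stranded 36-bp intergenic genomic probes together with negative controls, and binding took place in 1× PBS with 1% milk, 0.2 mg/ml BSA, 0.5% salmon testes DNA and 0.03% Triton X-100. An Alexa488 anti-GST antibody detected bound protein, and the array was scanned at 488 nm. Binding intensity is taken as the highest Masliner-normalised natural-log median intensity across replicate spots of either probe orientation.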
row,Sequence,gcPBM binding intensity (ln)
1,GAGAGTAAAACAAATATACACACCATAAAGTTATAA [CACACA_site1686],9.49
2,TATTTTTCCATATGCACACACACCGTATCTAGAATA [CACACA_site6654],9.93
3,TACATAAACATTTATACACACATTATGTATACATAT [CACACA_site405],9.61
4,GGATTTTTCGAATCATGTACATATTTAATTAAAAAA [XGTACX_site7939],8.87
5,TAGAATGTATGTAGTGCACACCTCTATAATATATTA [CACACA_site1873],9.4
6,AACTTTGGCAAACACACACACACACCCACACCCACA [CACACA_site588],10.3
7,CCGTTGAACATATATGCACACACATAAAATAAAAAA [CACACA_site8761],9.52
8,ATATTTTTTTTTTTTTGTACATATATCATTATATAT [XGTACX_site866],9.4
9,TGGTTACTGTCATTAGTTATTTCTTGTTGACAATTA [CACACA_negctrl_site416],9.32
10,TTTTTGTCTGCATACGCACACACGTGTACCATCTTA [CACACA_site1173],9.88
11,TAGATACATAAAAGTGGTACATATATATATATATAT [XGTACX_site6263],9.33
12,AATATTTATATTTACACACACATAATACCTATATGT [CACACA_site6167],9.91
13,TGGAAATTCTCAGGAGTGCATATTTGCAGTTTACGT [GTGCAC_site9768],9.13
14,ATGGTTAAAAAAAGCATACACACTATCCTCTTTGCT [CACACA_site2552],9.44
15,TTTGTTGACGGACACACACACATACAGATATATATA [CACACA_site5292],9.89
16,ATAATAAATTATTATGTACACACATAATAGTATATA [CACACA_site8538],9.39
17,ATTATTTTTAAAAATTGTACAGTATAAGAGAGAAAT [XGTACX_site7094],9.35
18,TATTGTAAAAAGATTACACACGTTCTATATACTTTT [CACACA_site5379],9.48
19,AATAAAAAAATATATTGTACTAATAATTATATGTTT [XGTACX_site2246],9.09
20,TTAATGGCAAAATAGGCACACACACCGATACATATA [CACACA_site8263],9.91
21,ACAGTAGCCAGTAACTGTACGGATTGTAGAGATCAG [XGTACX_site4873],9.24
22,ATAATATTTAGGTGTGCACACAAACATACATATATA [CACACA_site9120],9.95

row,Sequence,gcPBM binding intensity (ln)
1,AAAAAATCACAACACACACACACACTAATAAAAAAA [CACACA_site8410],10.2
2,TAAATATTATTATATACATGCACTTACAACTTTTTT [TGCATGCA_site877],9.28
3,AAATCACATAAAACATAATCAAATGAAATATAATCA [CACACA_negctrl_site123],9.31
4,ACTGTAAATTTATTCGGTACACATATAAATAATATT [XGTACX_site7346],9.31
5,ATAATAATAAAGTATGCATGCATATAATATAATATA [TGCATGCA_site796],9.35
6,TTTTTATTGCAATACTTATATTTTTTTATGATTAAA [TGCATGCA_negctrl_site147],9.04
7,ATGATAATTTTTTTCTCACACACAAATATTTTAATC [CACACA_site3665],9.7
8,AAAGATTCTTTGAATTGTACAAATATATTTACTCAC [XGTACX_site8772],9.11
9,CAATAATATATATATTGTACATTTTTTTTTATTATT [XGTACX_site3149],9.21
10,ATGTTCCATTTTACTTGTACTAATTTTTTCCTATCT [XGTACX_site6474],9.64
11,TATATTATTTTCTTTTGTACACATATATATCAGTGT [XGTACX_site664],9.34
12,ACACATAATATAAAGGTGCTATATTGTATTCATTTT [GTGCAC_site9457],9.46
13,TGCAAAAAAAAAAAAAAAAAATATATGGAAATATAT [GTGCAC_negctrl_site257],8.96
14,TTTTCATACACTGCTAGTATATACTACCACTGACAT [GTGCAC_negctrl_site514],9.42
15,AAACATATATTAAGCACACACAAACAAAAAAACAAA [CACACA_site2549],10.1
16,ACATTGAACAAAATAGTAAGCACATATATATATATA [GTGCAC_negctrl_site679],9.37
17,TGATTCATTGATAAGGGTACATTTATAATTATGATA [XGTACX_site6319],9.02
18,ACGTATCAATTTATTGGTACACATAAATATATATAT [XGTACX_site5556],9.2
19,TACCAAAAAAAAAAAATAATAATAAAAAAAAAAAAA [TGCATGCA_negctrl_site11],9.14
20,AACGAAGCATAAAATGTTATGTATATATATAAATAT [TGCATGCA_negctrl_site304],9.33
21,ATCATTTTGTGTTCAAGTACATAATGTTTTACACAA [XGTACX_site3565],9.24
22,CATACATTATAAGATACATGCATATATCTGAACATA [TGCATGCA_site797],9.31
